{"source": "the supplement of paper PMC11417369", "note": "Some of the results follow."}
{"tested_on": "PF3D7_0420300 AP2 domain 1 (GST-tagged)", "assay": "gcPBM binding intensity (ln(normalized median fluorescence intensity)); higher = stronger DNA binding", "in_short": "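For binding intensity, the highest Masliner-normalised natural-log median intensity across replicate spots of either probe orientation was taken. Protein bound to the array was stained with Alexa488 anti-GST antibody and scanned at 488 nm. The protein, GST-tagged P. falciparum DNA-binding domains from E. coli at about 25 μg on average, had been applied for 1 h to an Agilent 4 × 180k array of primer-extended double-stranded 36-bp intergenic genomic probes and negative controls.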"}
{"sequence": "ATATATATATTAAGGGGTACGTAAAAAATTGGGAAG [XGTACX_site7322]", "gcPBM binding intensity (ln)": 9.63}
{"sequence": "AAATTATATCCCCTTTGTACTTACAGATCTTTATAC [XGTACX_site8163]", "gcPBM binding intensity (ln)": 9.38}
{"sequence": "TAATGAGGAAAAAGTGTGTTAAGATTTTATAATTTA [GTGCAC_negctrl_site608]", "gcPBM binding intensity (ln)": 9.1}
{"sequence": "TAAAAAAAAATAAATACATGCATATAATACATTATA [TGCATGCA_site518]", "gcPBM binding intensity (ln)": 9.16}
{"sequence": "TATCATATAAATACATGTACATATTTGGAAAATAAT [XGTACX_site5373]", "gcPBM binding intensity (ln)": 9.3}
{"sequence": "ATATATATATTAACAATACACACGTGTATACCTTAT [CACACA_site2217]", "gcPBM binding intensity (ln)": 9.49}
{"sequence": "TGAACATGTTAAAATAAACACACAGCTAAGGTTTTT [CACACA_site7934]", "gcPBM binding intensity (ln)": 9.38}
{"sequence": "CATATACACGAACACACACACATATATATATATATA [CACACA_site4437]", "gcPBM binding intensity (ln)": 9.84}
{"sequence": "TAGTAAATAACAAAAGGAAAAATTAATGAGGCAAAA [TGCATGCA_negctrl_site526]", "gcPBM binding intensity (ln)": 9.62}
{"sequence": "CATCATAGCATTCCTCGTACAAATATAAACATATCA [XGTACX_site2711]", "gcPBM binding intensity (ln)": 9.23}
{"sequence": "ATGTTTTGTAAAATGATTAAATATTAAGATTCAATA [CACACA_negctrl_site1743]", "gcPBM binding intensity (ln)": 8.9}
{"sequence": "CTTAGAGTATTTAAATGTACACGTTTGTATATGTAT [XGTACX_site1767]", "gcPBM binding intensity (ln)": 9.22}
{"sequence": "TATGTGGCACAAAAGGGTACATATAATTTATACAGG [XGTACX_site5499]", "gcPBM binding intensity (ln)": 9.43}
{"sequence": "AAACAGAATGCATATACACACATACAAAAAAGTGCA [CACACA_site6591]", "gcPBM binding intensity (ln)": 9.8}
{"sequence": "TGTGTACCGATATTAAGTTTAACGTTATAAAAATAT [CACACA_negctrl_site1547]", "gcPBM binding intensity (ln)": 9.28}
{"sequence": "TTTCTAAACCGGTACAGTACATATAAAAATAGAATA [XGTACX_site6662]", "gcPBM binding intensity (ln)": 9.28}
{"sequence": "AAAGGACAAAAAAATGCATGCCGTTAAATTATGTAC [TGCATGCA_site512]", "gcPBM binding intensity (ln)": 9.38}
{"sequence": "AGTGTATTTTTATGTTGTACATGTAATATTTTTGAT [XGTACX_site541]", "gcPBM binding intensity (ln)": 9.49}
{"sequence": "TATATAATATATTAATGTACGTTATATGTATTCCTT [XGTACX_site6140]", "gcPBM binding intensity (ln)": 9.42}
{"sequence": "TACAGATATTCATATAAACACACATACAAATTATGT [CACACA_site7929]", "gcPBM binding intensity (ln)": 9.61}
{"sequence": "TAATTCATCATATGCACACACAATACCAAAATGTGC [CACACA_site191]", "gcPBM binding intensity (ln)": 9.69}
{"sequence": "CTTTTTTTTTAAATATCACACACATATAATATATTC [CACACA_site9222]", "gcPBM binding intensity (ln)": 9.42}
{"sequence": "AAGCATTTCCATGGTGGTACTATACAAATAATAATT [XGTACX_site6193]", "gcPBM binding intensity (ln)": 9.27}
{"sequence": "TATAAATAATGTTAAACACACATACCGATATATAAC [CACACA_site7306]", "gcPBM binding intensity (ln)": 9.66}
{"sequence": "TCTCTCTTATAAAATACACACGAACAATCATATTAT [CACACA_site8065]", "gcPBM binding intensity (ln)": 9.43}
{"sequence": "ATTTTTTTTTTTAAATGTACATAATATATATATAAT [XGTACX_site2686]", "gcPBM binding intensity (ln)": 9.16}
{"sequence": "TATTAAACTAAATGTAGTACATACACAAACGTAATC [XGTACX_site4905]", "gcPBM binding intensity (ln)": 9.37}
{"sequence": "TATTCGTGCAATAATGGTACACTTATAAATTATTCA [XGTACX_site1430]", "gcPBM binding intensity (ln)": 9.07}
{"sequence": "AAAAAAATTTGTATCACACACGTATTATAAAAAAAT [CACACA_site4182]", "gcPBM binding intensity (ln)": 9.36}
{"sequence": "CGAACATTATAAATGTCATTTTTTCCAACTTGATCT [GTGCAC_negctrl_site501]", "gcPBM binding intensity (ln)": 8.97}
{"sequence": "GTACAAAAATAAATTGCACACATTTTAATAAAAAAA [CACACA_site2130]", "gcPBM binding intensity (ln)": 9.22}
{"sequence": "TATATTTATTTATATACACACATATTTATAAATATA [CACACA_site7047]", "gcPBM binding intensity (ln)": 9.41}
{"sequence": "AGATTTAAATATCATACACACTTTATCTATAATACA [CACACA_site6581]", "gcPBM binding intensity (ln)": 9.29}
{"sequence": "CAAAATTGACATGACGCACACAAGTGTAGATATTTT [CACACA_site1250]", "gcPBM binding intensity (ln)": 9.31}
{"sequence": "TAGTTGTTTATAACACGTTGACAGAAATGTTATGTA [GTGCAC_negctrl_site624]", "gcPBM binding intensity (ln)": 9.11}
{"sequence": "AGTCTGAATAAAATTACACACATATACATATATATA [CACACA_site1780]", "gcPBM binding intensity (ln)": 9.58}
{"sequence": "AAAAAAAAAAAAAAAACACACAATAAAGTAAAATTT [CACACA_site135]", "gcPBM binding intensity (ln)": 9.49}
{"sequence": "ATATATAAATTTTAGTGTACATTAATTTTTTTTTTT [XGTACX_site7782]", "gcPBM binding intensity (ln)": 9.25}
{"sequence": "TAAATATATTAAGCTTGTACATGAAAAAAAAAAAAA [XGTACX_site3264]", "gcPBM binding intensity (ln)": 9}
{"sequence": "TATGTATATAAATTAACACACATATGTGGTTAATAG [CACACA_site3143]", "gcPBM binding intensity (ln)": 9.24}
{"sequence": "TACCTTTTTTGTTTTATGCACACCATATAACCAAGG [CACACA_site30]", "gcPBM binding intensity (ln)": 9.3}
{"sequence": "TTTTTTTTTCCGTGTTGTACAAAAAAAAAGATTTTG [XGTACX_site3925]", "gcPBM binding intensity (ln)": 8.86}
{"sequence": "AAGAAATATTTATACACACACACAAACATATAAATA [CACACA_site6981]", "gcPBM binding intensity (ln)": 10.2}
{"sequence": "TATAACTATTCACAGACATGCACATAATAACAATAA [TGCATGCA_site207]", "gcPBM binding intensity (ln)": 9.34}
{"sequence": "TAAAAAAAAAAAAAAGCATGCTATATTATATTACAC [TGCATGCA_site241]", "gcPBM binding intensity (ln)": 9.26}
{"sequence": "TTTTTTTAAATATACACACACATTTATACCTATATA [CACACA_site7572]", "gcPBM binding intensity (ln)": 9.72}
{"sequence": "TATAACTATAAAAGTAGTACACATATATATTATATA [XGTACX_site1391]", "gcPBM binding intensity (ln)": 9.18}
{"sequence": "AATGGTTTAAAATACTGTACATATATATAAAAGTAA [XGTACX_site6187]", "gcPBM binding intensity (ln)": 9.31}
{"sequence": "TTCCTAATTGACAACACACACAACAAAAAAGGGATT [CACACA_site1279]", "gcPBM binding intensity (ln)": 9.98}
{"sequence": "CACTAAAATAAACACACACACACACCGATATATATA [CACACA_site9379]", "gcPBM binding intensity (ln)": 10.3}
{"sequence": "TATATTTATATGATAACACACATAAATTATACATTT [CACACA_site1671]", "gcPBM binding intensity (ln)": 9.31}
{"sequence": "TTAATTTTATTTTTTTGTACACATAAATATTATAAA [XGTACX_site4680]", "gcPBM binding intensity (ln)": 9.05}
{"sequence": "AAAAAAAAAAAACACACACACACACTAATACATACA [CACACA_site8135]", "gcPBM binding intensity (ln)": 10.1}
{"sequence": "TTTCCCTACCAAAAATGTACTTATAAGCGTTTTTAT [XGTACX_site739]", "gcPBM binding intensity (ln)": 9.18}
{"sequence": "TTTTTAAATTATTGCACACAAAAATGAAAGGAAAAA [CACACA_site1455]", "gcPBM binding intensity (ln)": 9.26}
{"sequence": "TACATATTTATATACACACACACCGTCCGTGTTAAA [CACACA_site7413]", "gcPBM binding intensity (ln)": 9.92}
